Results published in publication PMC9440282 (iScience, 2022).

Target: ASH2L (Absent, Small, or Homeotic 2-Like), full length, tag-free (human (by the printed accession), UniProt Q9UBL3-3 1-534)
Assay: cross-linking; preassembled, SEC-purified M1WRAD complex (MLL1-WDR5-RBBP5-ASH2L-DPY30) at 0.6 mg/ml, 2 mM DSS, 25 mM HEPES pH 7.4, 150 mM NaCl, 1 mM DTT, 25°C 30 min; trypsin, LC-MS/MS, pLink2
Conditions: both partners purified

- binding result: binds
B1: MLL1 […] (WIN motif and SET domain) (domain or fragment)
chain: not shown
notes: MLL1, […], […] (WIN motif and SET domain); also called M1; source: E. coli Transetta (DE3), purified (glutathione Sepharose 4B, on-column 3C protease digestion, SEC); not shown: GST, N-terminal, cleaved
